Out of some 410,000 compounds screened, about 6,400 (1.6%) were called active. This list was built around the results that the source calls inconclusive (neither active nor inactive); the mix of calls is not that of the screen. Calls follow the shape of the dose curve; as a rule, active = well fitted inhibition curve with a large enough effect; inconclusive = small, poorly fitted or top-dose-only effect; inactive = no such curve, though single readings can be large or run the other way. Potencies of inconclusive entries are left out as doubtful fits.
Target: Glucagon-like peptide 1 receptor (Homo sapiens) (UniProt P43220)
Sequence of UniProt P43220 (P43220 whole entry, looked up): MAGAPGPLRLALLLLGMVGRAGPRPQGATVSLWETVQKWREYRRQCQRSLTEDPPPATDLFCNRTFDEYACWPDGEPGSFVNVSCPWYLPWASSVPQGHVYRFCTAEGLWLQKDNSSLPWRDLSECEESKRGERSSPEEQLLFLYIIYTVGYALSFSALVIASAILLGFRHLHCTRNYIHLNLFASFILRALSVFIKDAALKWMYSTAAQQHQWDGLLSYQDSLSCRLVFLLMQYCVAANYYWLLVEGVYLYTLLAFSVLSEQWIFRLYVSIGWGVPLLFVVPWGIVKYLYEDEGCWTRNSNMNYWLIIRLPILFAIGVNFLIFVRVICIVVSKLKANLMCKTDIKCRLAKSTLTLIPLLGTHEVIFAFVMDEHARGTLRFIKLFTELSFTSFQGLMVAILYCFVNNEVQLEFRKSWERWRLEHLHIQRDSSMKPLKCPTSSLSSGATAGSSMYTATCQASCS
Experiment: qHTS of GLP-1 Receptor Inverse Agonists (Inhibition Mode); also: nearly all actives have a fitted effect of over 55% in size
Conditions: HEK293 GLP-1R CRE-luciferase, luminescence, 24 h, GLP-1R form is constitutively active; activity change, negative = inhibition: at 38.3 µM (top of the series) unless noted
Method in brief: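 Seeding at 200 cells/uL, 12 h culture, 24 hr compound treatment, then luciferase reagent and a luminescence read; cells are HEK293 stably expressing a constitutively active GLP-1R plus cAMP-responsive luciferase.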
% is scaled to controls: 0 for no effect and ±100 for the full control effect; potency is read from the fitted curve at half-maximal effect; tags tell the direction and shape of the fitted curve.

**Q.** `Fc1ccc(CSc2nc(NCc3ccccc3)c3ccccc3n2)cc1` was tested. Which Potency did it give?
**A.** inconclusive [inhibitor, partial curve, poor fit]

**Q.** `Cc1cccc(NC(=S)N(CCN(C)C)Cc2cccs2)c1` was tested. Which Potency did it give?
**A.** inconclusive [inhibitor, single point]

**Q.** With `CC(=O)c1ccc(OC2(C)CCN(Cc3ccc4c(c3)OCCO4)C2)cc1` (configuration not stated) as the compound, how does the “activity change, negative = inhibition” value read?
**A.** inactive: 12.9%

**Q.** With `Cc1ccc(NC(=O)Cc2ccc(Cl)cc2)nc1` as the compound, how does the “activity change, negative = inhibition” value read?
**A.** inactive: -14.7%

**Q.** How did the Potency turn out when `Cn1cccc1-c1cc(C(=O)N/N=C/c2ccc([N+](=O)[O-])cc2)[nH]n1` was run?
**A.** inconclusive [inhibitor, full curve, poor fit]

**Q.** `CCN(CC(=O)NCc1ccc(Cl)cc1)C(=O)CCc1ccccc1` was tested. Which Potency did it give?
**A.** inconclusive [inhibitor, single point]

**Q.** For `Cc1ccccc1OC1C(=O)N(CC2CCCO2)C1c1ccc2c(c1)OCO2` (configuration not stated), which Potency is on record?
**A.** inconclusive [inhibitor, single point]

**Q.** How did the Potency turn out when `O=S1(=O)NC(c2ccccc2)CC(CC2CCCCC2)O1` (configuration not stated) was run?
**A.** inconclusive [inhibitor, single point]

**Q.** For `Cc1[nH]c2ccccc2c1SCCNC(=O)c1ccc(Br)o1`, which Potency is on record?
**A.** active: 11.2 µM

**Q.** With `COc1ccc(-c2coc3c(C(=O)Nc4cccc(NS(C)(=O)=O)c4)cccc23)c(C)c1` as the compound, how does the Potency read?
**A.** inconclusive [inhibitor, single point]

**Q.** Which Potency does the source give for `CCOC(=O)c1c(NC(=O)CN2CCOCC2)sc2c1CCCC2` here?
**A.** inconclusive [inhibitor, partial curve, poor fit]

**Q.** With `CC1(C(=O)Nc2ccc3ccccc3c2)CCC(=O)N1CCOc1ccccc1` (configuration not stated) as the compound, how does the Potency read?
**A.** inconclusive [inhibitor, single point]

**Q.** How did the “activity change, negative = inhibition” value turn out when `COc1cccc(C2=NS(=O)(=O)N(C)C(C(=O)Nc3ccccc3SC)=C2)c1` was run?
**A.** inactive: 10.8%

**Q.** With `CCOc1ccc(S(=O)(=O)NCCc2csc3nc(-c4ccc(F)cc4)nn23)cc1` as the compound, how does the “activity change, negative = inhibition” value read?
**A.** inactive: -18.9%

**Q.** With `O=C(NC(=S)Nc1ccc(Cl)c(C(=O)O)c1)c1ccc(OCc2ccccc2)cc1` as the compound, how does the “activity change, negative = inhibition” value read?
**A.** inactive: 2.72%

**Q.** Which “activity change, negative = inhibition” value does the source give for `O=C(Nc1c(-c2ccc3c(c2)OCO3)[nH][nH]c1=O)c1ccc2c(c1)OCO2` here?
**A.** inactive: 3.68%

**Q.** How did the Potency turn out when `Fc1ccc(CNCc2ccc3c(c2)OCO3)cc1` was run?
**A.** inconclusive [inhibitor, single point]

**Q.** With `CC(NC(=O)CCC(=O)c1ccc(F)cc1)C1CC2CCC1C2` (configuration not stated) as the compound, how does the Potency read?
**A.** inconclusive [inhibitor, single point]

**Q.** With `COc1cccc(C2SCC(=O)N2c2ccc(Cl)cc2)c1OC` (configuration not stated) as the compound, how does the Potency read?
**A.** inconclusive [inhibitor, partial curve, poor fit]

**Q.** How did the “activity change, negative = inhibition” value turn out when `N#Cc1c(-n2ncnc2-c2ccccc2C(F)(F)F)sc2c1CCCCC2` was run?
**A.** inactive: -2.22%

**Q.** For `Cc1ccc(NCc2cccn2-c2nnc(N3CCC(C(=O)NCCC(C)C)CC3)s2)cc1`, which Potency is on record?
**A.** inconclusive [inhibitor, single point]

**Q.** For `N/C(Cc1ccc(Cl)cc1Cl)=N\OC(=O)c1ccc(Br)o1`, which Potency is on record?
**A.** inconclusive [inhibitor, single point]

**Q.** `CCN(CC)C(=O)C1=C(C)N(Cc2ccc(C(C)(C)C)cc2)C(=O)C(CC(=O)NCc2ccco2)C1` (configuration not stated) was tested. Which Potency did it give?
**A.** inconclusive [inhibitor, single point]

**Q.** For `COc1ccc(NC(=O)Cn2ncc(Cl)c(Cl)c2=O)cc1S(=O)(=O)N1CCOCC1`, which Potency is on record?
**A.** inconclusive [inhibitor, single point]

**Q.** For `Cc1ccc(S(=O)(=O)NCc2ccc(C(=O)NCCN(Cc3ccccc3)C(C)C)cc2)cc1`, which Potency is on record?
**A.** inconclusive [inhibitor, single point]

**Q.** How did the Potency turn out when `CN(Cc1c(C(=O)N(C)Cc2ccccc2)nc2ccccn12)CC1Cc2ccccc2O1` (configuration not stated) was run?
**A.** inconclusive [inhibitor, partial curve, poor fit]

**Q.** How did the Potency turn out when `CC(C)(C)c1ccc(S(=O)(=O)NCc2ccc(C(=O)NCC3CCCO3)cc2)cc1` (configuration not stated) was run?
**A.** inconclusive [inhibitor, single point]

**Q.** `O=C(O)CN(CC(=O)O)CC(=O)O` was tested. Which “activity change, negative = inhibition” value did it give?
**A.** inactive: 5.87%

**Q.** Which Potency does the source give for `CCN(CC)CCN(C(=O)c1ccco1)c1nc2cc(C)cc(C)c2s1` here?
**A.** inconclusive [inhibitor, single point]

**Q.** How did the Potency turn out when `CS(=O)(=O)n1nc(-c2ccc(Cl)cc2)nc1SCc1ccccc1` was run?
**A.** inconclusive [inhibitor, partial curve, poor fit]

**Q.** `Cc1cc(C)c(C(N)=O)c(SCC(=O)c2cc(C)n(-c3cc(C)on3)c2C)n1` was tested. Which “activity change, negative = inhibition” value did it give?
**A.** inactive: 0.378%

**Q.** `CCOc1cc(-c2ccc(OC(=O)c3ccc(C)cc3)c(OC)c2)cc(=O)c2c(C)oc(C)c12` was tested. Which Potency did it give?
**A.** inconclusive [inhibitor, single point]

**Q.** Which Potency does the source give for `CSCc1ccc(C(=O)Nc2cc(C)cc(C)c2)cc1` here?
**A.** inconclusive [inhibitor, single point]

**Q.** Which “activity change, negative = inhibition” value does the source give for `O=C(Nc1cc([N+](=O)[O-])c2[nH]c(=O)c3ccccc3c2c1)C(F)(F)F` here?
**A.** inactive: 27.8%

**Q.** `CC(=O)c1ccc(NC(=O)CN(C)S(=O)(=O)c2cc3c(cc2Cl)NC(=O)CO3)cc1` was tested. Which “activity change, negative = inhibition” value did it give?
**A.** inactive: 18.9%

**Q.** For `O=C(CSc1ccc(Br)cc1)Nc1cccc(S(=O)(=O)N2CCOCC2)c1`, which Potency is on record?
**A.** inconclusive [inhibitor, single point]

**Q.** How did the Potency turn out when `CCCN(CCC)S(=O)(=O)c1ccc(C(=O)Nc2cccc(-c3nc4ccccc4[nH]3)c2)cc1` was run?
**A.** inconclusive [inhibitor, partial curve, poor fit]

**Q.** How did the Potency turn out when `Cc1ccc(/C([O-])=C(/C(=S)Nc2ccc(SC(F)F)cc2)[n+]2ccccc2)cc1[N+](=O)[O-]` was run?
**A.** inconclusive [inhibitor, partial curve]

**Q.** For `CCc1ccc(NC(=O)N(CCCN2CCOCC2)C(C)c2cc3cccc(OC)c3o2)cc1` (configuration not stated), which Potency is on record?
**A.** inconclusive [inhibitor, partial curve, poor fit]

**Q.** How did the “activity change, negative = inhibition” value turn out when `COc1ccccc1CCN1CCCC(CN(C)C(=O)c2ccc3nc[nH]c3c2)C1` (configuration not stated) was run?
**A.** inactive: -10.9%

**Q.** `O=[N+]([O-])c1ccc2ncnc(Nc3ccc4c(c3)OCCO4)c2c1` was tested. Which Potency did it give?
**A.** inconclusive [inhibitor, partial curve, poor fit]

**Q.** For `COc1ccc([N+](=O)[O-])cc1NC(=O)C(C)Sc1ccc(C)cc1` (configuration not stated), which Potency is on record?
**A.** inconclusive [inhibitor, single point]

**Q.** With `COc1cccc(-c2nn(C)c3sc(C(=O)NCc4ccco4)cc23)c1` as the compound, how does the Potency read?
**A.** inconclusive [inhibitor, single point]

**Q.** With `Cc1cc(C)c2c(CC(=O)Nc3ccc(S(=O)(=O)N4CCCCC4)cc3)coc2c1` as the compound, how does the Potency read?
**A.** inconclusive [inhibitor, partial curve, poor fit]

**Q.** `CCN1C(=O)C(CC(=O)Nc2ccc(OC)cc2)N(CCc2ccccc2F)C1=S` (configuration not stated) was tested. Which Potency did it give?
**A.** inconclusive [inhibitor, partial curve, poor fit]

**Q.** With `COc1ccc2c(c1)C(=O)CCC2c1ccccc1` (configuration not stated) as the compound, how does the Potency read?
**A.** inconclusive [inhibitor, partial curve, poor fit]

**Q.** For `O=C(CSc1n[nH]c(-c2ccccc2O)n1)NC1CCCCC1`, which Potency is on record?
**A.** inconclusive [inhibitor, full curve]

**Q.** How did the Potency turn out when `Cc1cccc(CSCc2ccc(C(=O)NCCc3ccccc3)o2)c1` was run?
**A.** inconclusive [inhibitor, single point]

**Q.** With `Cc1cc(Cl)ccc1C(O)c1ncc(-c2ccc(C(F)(F)F)cc2)[nH]1` (configuration not stated) as the compound, how does the Potency read?
**A.** inconclusive [inhibitor, single point]

**Q.** Which “activity change, negative = inhibition” value does the source give for `Cc1nc(N)sc1C(=O)Nc1ccccc1` here?
**A.** inactive: 62.4%

**Q.** Which Potency does the source give for `COc1cc(Cl)c(CN2CCCC(CO)(Cc3cccc(Cl)c3)C2)cc1OC` (configuration not stated) here?
**A.** active: 8.91 µM

**Q.** Which Potency does the source give for `S=C(NCc1cccnc1)Nc1ccc(Oc2ccc(Cl)cc2)cc1` here?
**A.** inconclusive [inhibitor, partial curve, poor fit]

**Q.** With `CN1CCN(c2ccc(-c3cccc(NC(=O)COc4ccccc4)c3)nn2)CC1` as the compound, how does the Potency read?
**A.** active: 11.2 µM

**Q.** `O=C(NCCc1ccccc1)c1c(F)cccc1F` was tested. Which Potency did it give?
**A.** inconclusive [inhibitor, partial curve, poor fit]

**Q.** `O=[N+]([O-])c1cccc2c(N3CCCC3)ccnc12` was tested. Which “activity change, negative = inhibition” value did it give?
**A.** inactive: -14.6%

**Q.** For `COCc1cc(OC)nc(-c2csc(C)n2)n1`, which “activity change, negative = inhibition” value is on record?
**A.** inactive: 1.99%

**Q.** Which Potency does the source give for `Cc1ccc(N(Cc2ccccc2)C(=O)c2cccc(S(=O)(=O)N3CC(C)OC(C)C3)c2)cc1` (configuration not stated) here?
**A.** inconclusive [inhibitor, partial curve, poor fit]

**Q.** For `Cc1ccc(C)c(OCc2cc(C(=O)NC(c3ccccn3)C(F)(F)F)no2)c1` (configuration not stated), which Potency is on record?
**A.** inconclusive [inhibitor, partial curve, poor fit]

**Q.** For `CC(C)(C)c1ccc(C(=O)NCC(c2cccs2)S(=O)(=O)c2cccs2)cc1` (configuration not stated), which Potency is on record?
**A.** inconclusive [inhibitor, partial curve, poor fit]

**Q.** Which Potency does the source give for `Cc1ccc(NC(=O)Nc2ccc3c(c2)N(C)C(=O)CS3)cc1C` here?
**A.** inconclusive [inhibitor, partial curve, poor fit]

**Q.** For `NCC(O)COCCC12CC3CC(CC(C3)C1)C2` (configuration not stated), which Potency is on record?
**A.** inconclusive [inhibitor, single point]

**Q.** How did the “activity change, negative = inhibition” value turn out when `COc1cc(C(=S)N2CCC(C)CC2)ccc1O` was run?
**A.** inactive: 0%

**Q.** How did the Potency turn out when `O=C(NCc1ccco1)c1cccc(C(F)(F)F)c1` was run?
**A.** inconclusive [inhibitor, single point]

**Q.** With `COc1ccc2oc(C(=O)OCC(=O)N3CC(C)OC(C)C3)c(C)c2c1` (configuration not stated) as the compound, how does the “activity change, negative = inhibition” value read?
**A.** inactive: 10.2%

**Q.** `CC(=O)Nc1ccc(-c2ccnc3c2CC(C)(C(=O)Nc2ccccc2)O3)cc1` (configuration not stated) was tested. Which “activity change, negative = inhibition” value did it give?
**A.** inactive: -20.2%

**Q.** Which Potency does the source give for `CC(=O)C1=C(C)NC2=C(C(=O)CC(C)(C)C2)C1C` (configuration not stated) here?
**A.** inconclusive [inhibitor, partial curve]

**Q.** `CC(C)CCn1nnnc1C(c1ccc(N(C)C)cc1)N1CCN(C(=O)c2ccco2)CC1` (configuration not stated) was tested. Which Potency did it give?
**A.** inconclusive [inhibitor, single point]

— PubChem BioAssay AID624417 (National Center for Advancing Translational Sciences (NCATS), 2012)
